Source: article PMC9911399, “Two distinct binding modes provide the RNA-binding protein RbFox with extraordinary sequence specificity”
Changes are numbered by the printed parent chain; changes in the protein carry UniProt numbers. Some of the results follow.

T1: RBFOX1 RRM RbFoxmut (Fox-RRM*) (Homo sapiens, UniProt Q9NWB1 109-208, R118D;E147R;N151S;E152T)
T1 sequence: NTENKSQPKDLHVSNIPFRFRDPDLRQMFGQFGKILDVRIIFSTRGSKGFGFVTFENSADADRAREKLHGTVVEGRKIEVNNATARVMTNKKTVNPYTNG

B1: UGUGGCC (DNA:RNA)
RNA: GGGAGACCGGAAUUCAGAUUGUCCUGUGGCCUUAAAUCCCGUCGUAGCCACCA
DNA 1: CAATCTGAATTCCGGTCTCCC
DNA 2: TGGTGGCTACGACGGGATT
B2: CCGUAGG (DNA:RNA)
RNA: GGGAGACCGGAAUUCAGAUUGUCCCCGUAGGUUAAAUCCCGUCGUAGCCACCA
DNA 1: CAATCTGAATTCCGGTCTCCC
DNA 2: TGGTGGCTACGACGGGATT
B3: CCAGUCG (DNA:RNA)
RNA: B2 RNA with G27A, U28G, A29U, G30C
DNA 1: CAATCTGAATTCCGGTCTCCC
DNA 2: TGGTGGCTACGACGGGATT
B4: AUUACAU (DNA:RNA)
RNA: B1 RNA with U25A, G26U, G28A, G29C, C30A, C31U
DNA 1: CAATCTGAATTCCGGTCTCCC
DNA 2: TGGTGGCTACGACGGGATT
B5: GUGUGUU (DNA:RNA)
RNA: B2 RNA with C25G, C26U, A29G, G30U, G31U
DNA 1: CAATCTGAATTCCGGTCTCCC
DNA 2: TGGTGGCTACGACGGGATT
B6: UAAUUCU (DNA:RNA)
RNA: B1 RNA with G26A, U27A, G28U, G29U, C31U
DNA 1: CAATCTGAATTCCGGTCTCCC
DNA 2: TGGTGGCTACGACGGGATT
B7: AACUUUU (DNA:RNA)
RNA: B2 RNA with C25A, C26A, G27C, A29U, G30U, G31U
DNA 1: CAATCTGAATTCCGGTCTCCC
DNA 2: TGGTGGCTACGACGGGATT
B8: UUAUUGG (DNA:RNA)
RNA: B2 RNA with C25U, C26U, G27A, A29U
DNA 1: CAATCTGAATTCCGGTCTCCC
DNA 2: TGGTGGCTACGACGGGATT
B9: UCUUCCC (DNA:RNA)
RNA: B1 RNA with G26C, G28U, G29C
DNA 1: CAATCTGAATTCCGGTCTCCC
DNA 2: TGGTGGCTACGACGGGATT

biological target: T1, RBFOX1 RRM RbFoxmut (Fox-RRM*); test: EMSA; HiTS-Eq, 1 nM pool, 10 min; buffer printed only for the single-RNA assays: 10 mM Tris pH 7.5, 150 mM NaCl, 3.4 mM EDTA, 0.001% NP-40, 30 C; conditions: tags: His6 N-terminal (pET28a); label: 5' 32P
In short: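 Purified RbFox RRM (wild type or mutant) was equilibrated for 10 min in 50 µL with 1 nM of a 5′-radiolabelled pool of RNA with 7 randomized nucleotides, its flanks annealed to DNA oligonucleotides, across increasing protein concentrations. Free RNA was separated by 8% native PAGE, excised, reverse-transcribed, PCR-barcoded and sequenced on an Illumina HiSeq 2500. Relative association constants came from read-count changes of each variant against the control reaction, normalised to the cognate motif.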

Binder | binding signal
B1 | 0.263 KA relative to UGCAUGU
B2 | 0.0801 KA relative to UGCAUGU
B3 | 0.0813 KA relative to UGCAUGU
B4 | 0.0878 KA relative to UGCAUGU
B5 | 0.184 KA relative to UGCAUGU
B6 | 0.0702 KA relative to UGCAUGU
B7 | 0.0643 KA relative to UGCAUGU
B8 | 0.0921 KA relative to UGCAUGU
B9 | 0.0652 KA relative to UGCAUGU
